Among all 310,000 compounds or so, about 14,000 (4.5%) showed an effect of 50% or more. The effect is printed as a negative number. Some of the results follow.
The molecules below were run against human ether-à-go-go-related gene (hERG) potassium channel (human, UniProt Q12809) (assay: primary screen, population patch clamp on CHO cells stably expressing hERG).
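Note: peak tail current of the secondary pulse compared with the same well before compound.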

Chain of human ether-à-go-go-related gene (hERG) potassium channel (Q12809 whole entry, looked up): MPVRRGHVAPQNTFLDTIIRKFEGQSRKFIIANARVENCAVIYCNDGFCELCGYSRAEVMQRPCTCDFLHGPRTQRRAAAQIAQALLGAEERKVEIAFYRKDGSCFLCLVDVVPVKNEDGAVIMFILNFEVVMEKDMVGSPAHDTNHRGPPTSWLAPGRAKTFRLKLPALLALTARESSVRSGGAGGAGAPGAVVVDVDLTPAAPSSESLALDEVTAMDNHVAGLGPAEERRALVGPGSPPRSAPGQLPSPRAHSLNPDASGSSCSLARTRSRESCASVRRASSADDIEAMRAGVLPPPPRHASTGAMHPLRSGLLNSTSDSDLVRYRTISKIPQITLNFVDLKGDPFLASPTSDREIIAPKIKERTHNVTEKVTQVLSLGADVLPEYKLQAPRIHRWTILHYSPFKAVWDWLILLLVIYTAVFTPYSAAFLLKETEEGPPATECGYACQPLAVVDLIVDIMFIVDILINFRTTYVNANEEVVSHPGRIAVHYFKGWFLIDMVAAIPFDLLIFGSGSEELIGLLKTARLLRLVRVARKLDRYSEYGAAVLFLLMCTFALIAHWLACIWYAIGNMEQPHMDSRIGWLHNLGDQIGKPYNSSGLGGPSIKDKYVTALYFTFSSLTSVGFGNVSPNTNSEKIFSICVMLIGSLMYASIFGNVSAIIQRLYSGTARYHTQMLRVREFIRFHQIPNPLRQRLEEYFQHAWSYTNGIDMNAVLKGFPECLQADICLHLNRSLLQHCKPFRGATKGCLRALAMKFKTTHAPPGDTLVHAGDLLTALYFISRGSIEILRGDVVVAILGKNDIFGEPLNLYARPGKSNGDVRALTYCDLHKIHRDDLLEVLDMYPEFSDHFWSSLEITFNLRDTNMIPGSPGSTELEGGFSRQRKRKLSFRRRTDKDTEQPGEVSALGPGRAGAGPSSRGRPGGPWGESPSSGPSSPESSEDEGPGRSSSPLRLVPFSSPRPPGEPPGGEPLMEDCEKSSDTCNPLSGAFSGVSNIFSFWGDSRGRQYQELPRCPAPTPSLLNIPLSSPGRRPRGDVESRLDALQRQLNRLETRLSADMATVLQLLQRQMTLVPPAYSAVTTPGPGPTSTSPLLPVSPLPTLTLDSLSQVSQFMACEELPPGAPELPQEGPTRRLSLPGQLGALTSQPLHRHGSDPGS

Compound	hERG current change (%, negative = inhibition) at 10uM [%]
C#CCOCCOCCOCCNc1nc(N2CCN(C(=O)C([C@@H](C)CC)n3cc(C(N)COC(=O)C(F)(F)F)nn3)CC2)nc(N2CCN(C(=O)[C@H](CCCCN)n3cc(C(N)CC(C)C)nn3)CC2)n1.Cl (some centres unmarked)	-2.2
C[N+](C)(C)CCCN(Cc1ccc2c(c1)OCO2)C(=O)NC1CCCCC1.[I-]	17
Cn1c(N)c(C(=O)COC(=O)CN2C(=O)c3ccccc3C2=O)c(=O)n(C)c1=O	0.291
O=C(CN1C(=O)COc2ccc(S(=O)(=O)N3CCOCC3)cc21)NCc1ccccn1	-1.38
CC(C)CCNC(=O)NC(=O)CSc1nnc2ccccn12	15.6
Cn1c(NCc2ccco2)nc2ccccc21	-10.2
CCN(CCNC(=O)C1CCN(S(=O)(=O)c2cccc3nsnc23)CC1)c1ccccc1	-25.9
CNC(=S)NNC(=O)c1cc(C(C)(C)C)nn1Cc1ccc(F)cc1	14.6
O=C(C1CCCCN1S(=O)(=O)c1ccccc1)N1CCN(Cc2ccccc2)CC1 (centres unmarked)	-19.5
COc1cccc(CC(=O)Nc2ccc3c(c2)OC2(CCCC2)O3)c1	-2.58
Cc1cccc(C(=O)NC(=S)N2CCN(c3ccc([N+](=O)[O-])cc3)CC2)c1	-2.77
Cn1c(SCC(=O)Nc2ccccc2O)nnc1-c1ccco1	-27.4
O=C(Cc1n[nH]c(=O)c2ccccc12)OCC(=O)c1ccc(F)c(F)c1	13.4
CN1CCN(C(=S)SCc2nc(N)nc(Nc3ccc(F)cc3)n2)CC1	-18.4
CCCn1c(NC(=O)c2ccco2)nc2ccccc21	9.09
NS(=O)(=O)c1ccc(CCNC(=S)NC2CCCCC2)cc1	-3.19
CCNc1nc(NCC)n2c(SCC(=O)Nc3ccc(CC)cc3)nnc2n1	8.7
CC1Cc2ccccc2N1CC(=O)N(C)c1c(N)n(Cc2ccccc2)c(=O)[nH]c1=O (centres unmarked)	-6.81
O=C(NCc1ccc(F)cc1)N1CCc2ccccc2C1	2.77
Cc1ccccc1-n1c(SCC(N)=O)nc2sc(-c3ccccc3)cc2c1=O	-3.3
COc1ccc(OC)c(S(=O)(=O)Nc2ccc3c(c2)N(C(C)=O)CCC3)c1	-10.4
COc1ccc(-c2noc(-c3ccccc3C(=O)NCc3ccco3)n2)cc1OC	-33.7

Compound	hERG current change (%, negative = inhibition) at 10uM [%]
Cc1cc(=O)c(C(=O)O)cn1Nc1ccc(F)cc1	1.32
CC(Oc1ccc(Cl)cc1)C(=O)Nc1nccs1 (centres unmarked)	-6.48
CCCCCCCC(=O)OC(CN1CCCC1=O)C[NH+]1CCCCCC1.[Cl-] (centres unmarked)	-9.91
COCc1cc(C)nc(OCC(=O)N/N=C/c2ccc(-c3cc([N+](=O)[O-])ccc3Cl)o2)c1C#N	18
Cc1cccc(NC(=S)Nc2cccc(C)n2)n1	14.5
Cc1ccccc1OCc1n[nH]c(=S)n1Cc1ccccc1	15.1
Cc1nn(CCCC(=O)NCc2ccc(F)cc2)c(C)c1[N+](=O)[O-]	-47.6
CCOC(=O)c1cc(-c2ccccc2C)nn1Cc1cc(CC)no1	-6.45
CCn1c2ccccc2c2cnc(N=CN(C)C)c(C#N)c21	-24
CC1(C)CC(=O)C(CS(=O)(=O)c2ccccc2)=C(Cl)C1	12.9
Cc1nc(/C=C\C(=O)O)c2cc(C)oc2n1	6.6
CN(C)c1ccc(/C=N/Nc2cccc(C(=O)O)c2)cc1	24.2
COc1ccc(Nc2cccccc2=O)cc1	-24
Cc1cc(NC(=O)CCC(=O)N(CCC(C)C)C(C(=O)NCC2CCCO2)c2ccccc2C)no1 (centres unmarked)	17.5
O=C(Cn1nc(-c2ccccc2)nc1-c1ccccc1)OC1CCCCC1	7.88
CC(=O)c1c(C)[nH]c(C(=O)OCC(=O)Nc2nnc(-c3ccccc3)o2)c1C	9.78
CCOC(=O)CSc1ncnc2c1sc1nc(N3CCOCC3)c3c(c12)CCCC3	12.7
N#CCCN(CCC#N)S(=O)(=O)c1ccc(C(=O)Nc2nc(-c3ccccc3)c(C(=O)c3ccccc3)s2)cc1	-0.441
COCCn1c(N)c(Sc2ccc(Cl)cc2)c(=O)[nH]c1=O	6.8
CC(C)c1ccc(NC2CCCN(C(=O)c3cccs3)C2)cc1 (centres unmarked)	-10.8
CCN1C(=O)c2ccc(C(=O)O)cc2C1=O	9.2
Cc1cc(C(=O)COC(=O)c2ccc(CO)cc2)c(C)n1CC1COc2ccccc2O1 (centres unmarked)	-0.0441

Compound	hERG current change (%, negative = inhibition) at 10uM [%]
Cc1ccc(NC(=O)CCC(=O)c2ccc(Cl)s2)nc1	11.7
O=C(Cn1nnc2ccccc2c1=O)Nc1ccc(S(=O)(=O)N2CCOCC2)cc1	-0.303
CN1C(=O)C2C=CC1C1C(=O)N(c3ccccc3)C(=O)C21 (centres unmarked)	11.5
O=C(c1ccc(N2CCOCC2)c([N+](=O)[O-])c1)N1CCN(S(=O)(=O)c2cccs2)CC1	-47.3
COc1ccccc1S(=O)(=O)Cc1ccc(C(=O)NC2CCCCC2)o1	-6.75
CC(C)CC(NC(N)=O)C(=O)Nc1ccc(Cl)c(Cl)c1 (centres unmarked)	2.84
O=c1[nH]c2cc([N+](=O)[O-])c(NCCO)c([N+](=O)[O-])c2[nH]1	30.2
O=C(C1CCN(S(=O)(=O)c2cccnc2)CC1)N1CCN(c2ccc(Cl)cc2)CC1	-56.2
O=C(NCCNS(=O)(=O)c1ccccc1Cl)c1cc(OCC(F)(F)F)ccc1OCC(F)(F)F	-4.88
COc1ccc2[nH]c(=O)c(CN(Cc3cccs3)C(=S)Nc3cccc(C)c3)cc2c1	6.6
CC(NC(=O)CN1CCC(C(N)=O)CC1)c1ccccc1 (centres unmarked)	20.6
N#Cc1cc(Nc2c(N)nc[nH]c2=O)c([N+](=O)[O-])cc1C#N	8.95
COc1ccc(-c2csc(NC(=O)CN3C(=O)CCC3=O)n2)cc1	-11
Cc1ccc(-c2csc(NCCc3nc4cc(Cl)c(Cl)cc4n3CCOCCO)n2)cc1	5.05
COC(=O)c1sccc1NC(=O)COc1ccc(F)cc1Cl	-0.106
O=c1cc(CNc2cc(C(F)(F)F)cc(C(F)(F)F)c2)nc2sccn12	-6.36
CC(C)CNc1nc(SCC(=O)Nc2ccccc2)nc(N2CCOCC2)n1	-4.05
C=Cc1ccc(Cn2c(=O)n(CCCOC)c(=O)c3sccc32)cc1	-4.14
O=c1c2cnn(-c3ccccc3)c2nc(-c2ccco2)n1-c1ccccc1	-5.61
O=C(c1ccccc1)N(NC(=O)C(O)(c1ccccc1)c1ccccc1)c1cccc(F)c1	1.41
Cc1ccc2c(c1)S/C(=C/c1ccc[n+](C)c1)N2CCO.[I-]	-4.88
Cc1ccc2cc(CN(CC3CCCO3)C(=S)Nc3ccccc3)c(=O)[nH]c2c1C (centres unmarked)	0.744

Compound	hERG current change (%, negative = inhibition) at 10uM [%]
Cc1cccc(OCC(=O)Nc2ccccc2N2CCCCC2)c1C	-21.9
Cc1[nH]c(C)c(S(=O)(=O)N(C)Cc2ccccc2)c1C(=O)N1CCCC1	15.2
CCC(=O)N1CCc2cc(S(=O)(=O)CCC(=O)NCc3ccc4c(c3)OCO4)ccc21	0.659
CN(C)c1ccc(NC(=O)CSc2n[nH]c(-c3ccco3)n2)cc1	4.82
Cc1c(NS(=O)(=O)c2ccc(F)cc2)c(=O)n(-c2ccccc2)n1C	13
COc1ccc(Sc2ccc(/C=C3\C(=O)NN(c4ccccc4)C3=O)o2)cc1	7.52
O=C(NCCc1ccccc1)C1CCN(C2CCN(Cc3ccco3)CC2)CC1	-62.7
CCn1nc(C)c(CNCc2cn[nH]c2-c2cc3ccccc3o2)c1C	-19
O=C(O)c1ccc(N/C(=N\S(=O)(=O)c2ccc(Cl)cc2)c2ccccc2)cc1	-1.75
CCCOc1ccc(-c2nnc(-c3ccco3)o2)cc1	2.1
Cc1ccc(C(=O)N(C)CC(=O)Nc2cccc(C)c2C)o1	9.83
COc1ccccc1CN1[C@@H](CC(C)=O)c2cc(C(F)(F)F)ccc2S1(=O)=O	-8.05
CCOC(=O)C1(CC2CCCCO2)CCN(Cc2nccn2-c2cccc(C)c2)CC1 (centres unmarked)	13.2
C=CCNC(=S)NNC(=O)c1csc(C)c1CC	0.462
C/C(CC(=O)NCc1ccco1)=N\NC(=O)Cc1ccccc1	19.6
Cc1noc(C)c1COc1ccc(C(=O)O)cc1	17.1
Cc1nn(-c2ccccc2)c(C)c1NC(=O)COC(=O)C1CC(=O)N(CCc2ccccc2)C1 (centres unmarked)	9.52
CCc1ccc(N(CC(=O)Nc2nc3ccc(C)cc3s2)S(=O)(=O)c2c(C)noc2C)cc1	7.28
COc1ccc(CN2CCOCCOCCOCCOCCOCC2)cc1	-20.7
Cc1onc(-c2c(Cl)cccc2Cl)c1C(=O)N1CCSCC1	-5.76

From publication PMC4336329 (PLoS ONE, 2015)
